In all, about 33,000 sequences were measured (“E-score (-0.5 to 0.5)”: median about -0.011, highest 2% from about 0.28 on). The list shows a part of the results.
molecular target: T1, Gcr1 (UniProt P07261); experiment: PBM E-score (8-mer binding enrichment) (E-score (-0.5 to 0.5)); higher = stronger / more preferred TF binding; most listed sequences are background and not binding sites; conditions: protein concentration: 100 nM; construct: GST-full length
T1 sequence: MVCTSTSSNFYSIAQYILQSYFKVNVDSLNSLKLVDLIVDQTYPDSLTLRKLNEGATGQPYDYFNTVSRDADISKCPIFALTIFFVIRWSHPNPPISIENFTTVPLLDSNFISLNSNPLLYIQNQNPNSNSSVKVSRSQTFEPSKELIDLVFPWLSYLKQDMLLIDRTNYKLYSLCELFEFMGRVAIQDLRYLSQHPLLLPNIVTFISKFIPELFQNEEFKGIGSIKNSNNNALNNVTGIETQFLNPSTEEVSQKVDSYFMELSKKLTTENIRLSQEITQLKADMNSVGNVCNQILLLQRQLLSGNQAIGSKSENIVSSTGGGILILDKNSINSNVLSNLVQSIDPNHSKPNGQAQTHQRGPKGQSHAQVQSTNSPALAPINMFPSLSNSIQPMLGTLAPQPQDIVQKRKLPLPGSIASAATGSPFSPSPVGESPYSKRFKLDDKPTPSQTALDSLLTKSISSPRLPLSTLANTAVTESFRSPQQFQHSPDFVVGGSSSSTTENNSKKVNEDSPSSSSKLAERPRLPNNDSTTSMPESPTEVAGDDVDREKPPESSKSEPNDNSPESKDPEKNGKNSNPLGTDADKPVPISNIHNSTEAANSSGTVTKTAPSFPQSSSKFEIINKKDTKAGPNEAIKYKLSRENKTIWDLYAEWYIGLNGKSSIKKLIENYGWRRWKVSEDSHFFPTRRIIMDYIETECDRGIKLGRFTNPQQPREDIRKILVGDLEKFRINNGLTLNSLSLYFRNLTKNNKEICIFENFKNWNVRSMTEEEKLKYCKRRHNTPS
In short: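 The E-score, a modified Wilcoxon-Mann-Whitney statistic, was computed by the Universal PBM Analysis Suite for every ungapped eight-base word pooled with its reverse complement. Scans behind it were normalised with masliner after bound GST-tagged yeast transcription factors were detected with fluorescent anti-GST. The proteins, at about 100-200 nM, had been applied to universal all-10-mer Agilent arrays made double-stranded by primer extension.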

| Sequence | PBM E-score |
| --- | --- |
| GCCATTGA | -0.183 |
| CGCGTCAC | -0.00336 |
| CTCTTGGC | 0.0301 |
| CCTTTGAC | -0.135 |
| CGAAGGCA | -0.173 |
| ATGTTGGC | 0.00948 |
| AAGTGACC | -0.151 |
| ATCTCGCA | 0.00385 |
| TCAGCCAA | -0.102 |
| AGAATGCG | 0.0554 |
| AGCAGCCG | 0.285 |
| AATGTGAG | 0.0153 |
| GTTTAAAA | 0.184 |
| ATGTCACA | 0.092 |
| TGATGGAA | 0.177 |
| AAGACTAA | 0.109 |
| CTAGTAAA | 0.226 |
| ACAGGCGA | -0.167 |
| GACCTTCA | -0.157 |
| ACAGCTCG | -0.11 |
| CGACTGCC | -0.0219 |
| ATTAAACG | 0.0978 |
| ATCATAGA | -0.121 |
| TAGCGCTA | -0.201 |
| ATCGGTAC | -0.121 |

| Sequence | PBM E-score |
| --- | --- |
| TATGGGGA | 0.14 |
| AAGGACGT | -0.131 |
| ACATGCCG | -0.135 |
| ATCCCAAC | 0.117 |
| CAAAACTG | 0.107 |
| AAGCGGCT | 0.232 |
| AAAGTCGT | 0.0398 |
| CTGGCTTC | 0.362 |
| ACGAAAAC | -0.0729 |
| CTATCGTC | -0.014 |
| CGCTTCAA | 0.038 |
| GCGCTTTA | -0.0303 |
| CCTTTCGA | 0.0109 |
| ATCTTTTG | -0.0138 |
| ACTACACG | 0.142 |
| AGTTCTTC | 0.129 |
| GAGCAACA | -0.0873 |
| CTGGCCTA | -0.394 |
| GACTAGGA | -0.0166 |
| AGTTACTA | 0.142 |
| CGATCAAG | -0.0812 |
| AGGGCTAA | -0.141 |
| ACTAGCTA | -0.00239 |
| ACGAGAGC | -0.0344 |
| TCGGACCA | -0.179 |

| Sequence | PBM E-score |
| --- | --- |
| CTATGACC | -0.209 |
| GCGAGATA | 0.124 |
| AACTATCG | -0.108 |
| CACGGCTA | -0.0258 |
| CCACTGGC | -0.022 |
| GCAAATTA | 0.145 |
| AACGCGCT | 0.0775 |
| AGAGCCCT | -0.129 |
| TGACGGAA | 0.0807 |
| CGAAGACA | -0.0758 |
| AGGCACTG | -0.0493 |
| CCTGCAAG | -0.232 |
| ACTGGGAG | 0.123 |
| GCGATAAA | -0.112 |
| CGGCGAGC | -0.256 |
| AATAGTAA | 0.0605 |
| CAGGCGAA | -0.252 |
| AGCGGGGG | -0.314 |
| ACATCATG | -0.133 |
| TACTCTAA | -0.196 |
| AGGGGTCA | -0.0268 |
| CATTCGTA | 0.0763 |
| GCTGACAC | -0.133 |
| AAGTTGCC | 0.127 |
| ATGGCCCG | -0.309 |

| Sequence | PBM E-score |
| --- | --- |
| AAGGCTCA | -0.217 |
| CCCGTAGG | -0.106 |
| AAAGCGTT | -0.224 |
| GACAGGGA | 0.0551 |
| CGAGTTAG | -0.091 |
| CGCTCCCA | 0.132 |
| CCTAACTA | 0.192 |
| ATAGCCGG | -0.174 |
| CCTCCATA | -0.106 |
| CTACACAA | -0.113 |
| GGCACCCA | 0.381 |
| CACAATGC | -0.0262 |
| AACCGCCC | -0.172 |
| GCGTCGTA | 0.242 |
| CCTGCAGA | -0.063 |
| ATGGAAAC | 0.0953 |
| CAGACAAA | 0.0568 |
| CACTGGGG | 0.0565 |
| GCATAACC | -0.19 |
| ATACCCGG | -0.0356 |
| ACATTCTG | -0.0939 |
| CAAGAGTC | -0.0179 |
| CCCAGATC | -0.109 |
| GTTTGTAA | -0.00488 |
| AAGGCTAA | -0.0944 |

| Sequence | PBM E-score |
| --- | --- |
| GACTGCCC | -0.28 |
| GATGGAGC | -0.112 |
| AGCGGGAC | -0.0513 |
| GATTACGA | -0.0537 |
| GCAGTGGA | 0.11 |
| ACACTTAG | -0.0488 |
| ATGAATCG | -0.0193 |
| GAAAGCAC | -0.144 |
| CTATAATC | 0.00892 |
| CTGCCGCA | 0.0817 |
| ACGTAGGA | 0.00153 |
| CTTTAGAA | 0.0352 |
| ACGCTGTA | -0.0367 |
| AATCGAAT | 0.168 |
| GACTAGCA | -0.00823 |
| TAACTATA | 0.128 |
| GCGGCAGC | 0.253 |
| GCCCAGGA | -0.0115 |
| CCGAGCAC | 0.104 |
| AGAAGGCA | 0.00025 |
| GAAGTCCA | 0.0795 |
| GCATTTAA | 0.0306 |
| CCATCGCG | 0.0375 |
| GGCGAAAA | 0.125 |
| AGCAGAGA | 0.0185 |

| Sequence | PBM E-score |
| --- | --- |
| ACGAAATG | -0.0577 |
| CACCCGAA | 0.212 |
| AATGCCGA | -0.178 |
| GTCGTCGA | -0.0924 |
| AGCGCCGC | 0.187 |
| CCTAACAC | 0.107 |
| ACTCCCTA | -0.0517 |
| CGGCTTAG | 0.0319 |
| GGGTAGTA | -0.21 |
| CACATCAG | -0.137 |
| ATTAGTCG | -0.0557 |
| ACGGTCTC | -0.147 |
| AGTACGCC | -0.163 |
| GTAGCGCA | 0.139 |
| GCGTATTA | 0.109 |
| TAGCGCAA | 0.0029 |
| CTGGGACA | -0.00954 |
| AACGCACT | 0.0984 |
| CCGGCTAA | -0.0373 |
| AATTTGTG | 0.168 |
| AAGGACAA | -0.181 |
| AAACTTCT | 0.139 |
| GGCAAGCC | -0.0773 |
| GGGGACGA | -0.0713 |
| AACATAAA | 0.089 |

| Sequence | PBM E-score |
| --- | --- |
| AGATTTAT | 0.107 |
| AATTACAA | 0.00033 |
| CCATACGG | 0.0586 |
| TTAGGCAA | -0.0665 |
| ACAACACG | -0.0643 |
| GATACTCA | -0.0294 |
| GACTCGCC | -0.18 |
| CCGAGTGA | 0.0218 |
| ATCACTCA | 0.00858 |
| GGGAGCGA | -0.127 |
| GATCTAAA | -0.0916 |
| ACTAGAGG | 0.134 |
| ATCTACCG | -0.0418 |
| AACTAGAG | 0.105 |
| TGACTGAA | -0.152 |
| AGACACGA | 0.0227 |
| CGCACACC | 0.0238 |
| ACGGCTTA | -0.11 |
| GCTTAGCC | -0.211 |
| CATCTGGG | 0.0918 |
| GGGATGCA | -0.0546 |
| ACAATCTA | -0.152 |
| AATATTTG | 0.149 |
| AGCGTCCA | 0.437 |
| CTTCCTGA | 0.179 |

| Sequence | PBM E-score |
| --- | --- |
| CAACTTCG | 0.107 |
| ATCCACAT | 0.223 |
| AGGGGAGG | 0.0595 |
| AAACAGTG | -0.0349 |
| CGCGGTGC | -0.116 |
| AGACTCCG | -0.00535 |
| ACGCCAGA | -0.0144 |
| CAAGCTAA | -0.177 |
| ACCCGACA | 0.0455 |
| CCTATATA | 0.18 |
| CGATTGAC | 0.131 |
| ATACGGGA | 0.112 |
| CTGCTAGA | -0.0641 |
| CAGACCCA | 0.0446 |
| CGTAAAGA | -0.0217 |
| CGGTTGAC | -0.0681 |
| AGATTCTG | 0.137 |
| CATATCAG | 0.0958 |
| GATTGCGA | -0.0977 |
| AATACTGG | 0.369 |
| CCCAGCAC | -0.0444 |
| GGGTACCC | 0.0484 |
| CAAAGCCA | -0.104 |
| CATACATC | 0.0601 |
| CCCGGCCG | -0.191 |

| Sequence | PBM E-score |
| --- | --- |
| GCGTCCTA | 0.43 |
| ATCGAGTC | -0.0169 |
| CTGCTGTC | -0.144 |
| AACAGATA | 0.00876 |
| ACCTATAA | 0.0515 |
| CCCGCTAA | 0.0209 |
| CAGTGGGG | -0.00851 |
| GAGGAAAC | -0.104 |
| ACCAGGCC | -0.14 |
| TAAATCGA | 0.0142 |
| GCGGTGCC | 0.183 |
| GATGCCTA | 0.202 |
| CACTAGTA | 0.0388 |
| GACTTACA | 0.075 |
| ATTAAGAG | 0.0762 |
| ACCAGCCC | 0.114 |
| AACCGTCC | -0.0266 |
| ACCTTAAC | -0.0375 |
| AGTTTCGC | 0.0103 |

From the supplement of paper PMC3334620
